The values below come from publication PMC12040169 (PLOS Biology, 2025).

The list shows a part of the results.

For this test, the system named is T1, C. trachomatis L2/434/Bu expressing GFP (CTL2-GFP).
T1 construct: L2/434/Bu GFP intracellular growth in HeLa cells
On the set-up: species or system HeLa; C. trachomatis total inclusion area by high-content imaging, normalised to DMSO. The following applies: total inclusion area; 28.5 h, 10 µM; inhibitor. The essentials:
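Bulk GFP and resorufin signals were read first. Wells were then fixed, stained with Hoechst and imaged to detect GFP inclusions and host nuclei. MICs followed the previously described calculation.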
For the molecule `CNC(=O)c1cccc(NC(=O)C(C)N(C)Cc2cnc(C)s2)c1` (stereo not shown) [CBK305735], the “% of control remaining” value is given as 67.3522.
Next, `Nc1ncc(-c2ccccc2CO)nc1Nc1ccc2[nH]ccc2c1` [CBK063843]: 93.6764; `COc1cc(/C=N/n2cnnc2)ccc1OCCOc1ccc(C(C)(C)C)cc1` [CBK263762]: 86.062; `c1ccc2c(OCCOCCN3CCCCC3)cccc2c1` [CBK262000]: 91.0122.
Regarding `Nc1ncnc(Nc2cc(C(F)(F)F)cc(C(F)(F)F)c2)n1` [CBK006617], the “% of control remaining” value amounted to 94.9263.
To `CCN(C(=O)C(C)N(C)Cc1c(C)nn(C2CCS(=O)(=O)C2)c1C)c1cccc2ccccc12` (stereo not shown) [CBK295206] belongs 107.399.
To `CCC(CC)C(=O)N1CCCC(c2cc3cccnc3[nH]2)C1` (stereo not shown) [CBK284926] belongs 83.7929; to `NC(=O)CSc1nnc(COc2cccc(Cl)c2)n1-c1ccccc1` [CBK267685], 91.3434.
Take `CCCOc1nccnc1N1CCNCC1` [CBK001839G]: the “% of control remaining” value was 48.1995.
Regarding `Cc1nn(C)cc1-c1cncn1Cc1ccccc1CN(C)C` [CBK281985], the “% of control remaining” value stood at 73.105.
Next, `COc1ccccc1-c1c(O)n[nH]c1CCC1CCCC1` [CBK075128]: 108.978.
In the case of `COc1cc(/C=C2\N=C(c3cc(Cl)ccc3OC)OC2=O)ccc1OC(=O)c1ccccc1` [CBK265069], the “% of control remaining” value came to 116.351.
Next, `O=C(NCCCCNC(=O)c1scc(-c2ccccc2)c1C(=O)O)c1scc(-c2ccccc2)c1C(=O)O` [CBK296086]: 90.0895; `CCN1CCN(Cc2nc3c(c(=O)n(C)c(=O)n3C)n2CCc2ccccc2)CC1` [CBK269547]: 96.4192; `CC(=O)Nc1cccc(-c2cnc(N)c(N3CCN(C)CC3)n2)c1` [CBK063361]: 94.84.
Next, `O=C(NCC1CCCCC1)N1CCN(c2cc(C(F)(F)F)ccn2)CC1` [CBK162323]: 47.5859; `COc1ccc(-c2nc(NC(=O)Cc3ccc(S(C)(=O)=O)cc3)cnc2-c2cccc(C)c2)cc1` [CBK037525]: 109.807; `CCCc1cc(CNC(=O)CN2CCCC(C)C2)on1` (stereo not shown) [CBK282045]: 128.203.
Next, `CON=Cc1c[nH]c2ccccc12` [CBK168628]: 56.855.
In the case of `COC(=O)C1ON2CCCCC2C1(O)C(F)(F)F` (stereo not shown) [CBK007430], the “% of control remaining” value is recorded as 81.3132.
Consider `Cc1ccc(-c2nccnc2OCc2ccccc2)cc1C` [CBK106861], for which the “% of control remaining” value amounted to 84.0533.
To `COc1cccc2cc([C@H]3CN(C(=O)C(C)(C)N)C[C@@H]3C(=O)N3CCC4(CC3)CN(S(C)(=O)=O)c3ccccc34)oc12` [CBK001347C] belongs 82.8741; to `CC(=O)c1cccc(NC(=O)CCn2[nH]c(=O)ccc2=O)c1` [CBK306094], 38.5216; to `COc1cc(CN2CCN(Cc3cccc([N+](=O)[O-])c3)CC2)cc(OC)c1` [CBK263156], 95.183.
On to `Cc1cc(C(F)(F)F)c2c(NCc3ccoc3)n[nH]c2n1` [CBK284698], for which the “% of control remaining” value is on record as 39.9555.
Next, `CC1CCCCN1S(=O)(=O)c1cccc2nonc12` (stereo not shown) [CBK261723]: 106.912; `Fc1cccc(F)c1CN1CCN(CCc2ccccc2)CC1` [CBK126422]: 109.674; `CCCC/C=C/c1cnc2[nH]c(=O)n(Cc3ccccn3)c2n1` [CBK064365]: 136.075.
As to `Cc1ccccc1CN1CCN(CC(=O)Nc2ccccc2C(N)=O)CC1` [CBK270296], the “% of control remaining” value stood at 88.6597.
To `CN(C)CCN(C)C(=O)c1ccc(-c2cccc(C(=O)NCCO)c2)nc1NCC1CC1` [CBK076603] belongs 78.0008.
Next, `CC[C@H](Cn1c(=O)oc2ccccc21)NC(=O)C1CCCC1` [CBK284542]: 53.4149; `COc1ccccc1-c1cc(C(F)F)nc(S)c1C#N` [CBK288358]: 98.3262; `COc1ccc(C2NC(C(=O)O)C3C(=O)N(c4ccc(C)cc4)C(=O)C23)c(OC)c1` (stereo not shown) [CBK287233]: 107.599.
Next, `c1ccc([C@@H]2CN(Cc3cccnc3)C[C@H]2c2cc[nH]n2)cc1` [CBK285160]: 99.3869; `CC(C)n1nnnc1-c1ccccc1NS(=O)(=O)C1CC1` [CBK305509]: 27.636.
Turning to `CCn1c(CNC(=O)c2cn3ccc(C)cc3n2)nc2ccccc21` [CBK281394], the “% of control remaining” value was 80.0904.
With `O=C(NCc1ccccn1)C1CCC(Cn2c(=S)[nH]c3ccccc3c2=O)CC1` (stereo not shown) [CBK266645], the “% of control remaining” value was 116.879.
Next, `O=C(O)COc1c(-c2ccco2)oc2ccccc2c1=O` [CBK269262]: 96.7308.
To `CC(=O)N[C@@H](Cc1c[nH]cn1)C(=O)Nc1cc2ccccc2c(Br)n1` [CBK063302] belongs 102.417; to `CCOC(=O)c1cnn(C2CCCN(Cc3cncs3)C2)c1` (stereo not shown) [CBK304039], 41.5847; to `COCC1CN(C(=O)Nc2ncc(Cc3ccc(C)c(Cl)c3)s2)CCO1` (stereo not shown) [CBK306286], 60.3355.
To `Cc1cccc(-c2ncc(NC(=O)CC3OC(=O)c4ccccc43)nc2-c2ccc(N)cc2)c1` (stereo not shown) [CBK036749] belongs 117.018.
As for `COc1cc2nc(NC(=O)C3COc4ccccc4O3)sc2cc1OC` (stereo not shown) [CBK287702], the “% of control remaining” value came out at 92.9141.
Next, `CS(=O)(=O)Nc1nccnc1OC1CCN(CCc2ccccc2)CC1` [CBK084279]: 86.0659; `COc1ccc([C@@]23CC[C@@H](NC(=O)Nc4ncc(Cl)s4)C[C@@H]2N(C)CC3)cc1OC` [CBK051620T]: 91.1531; `O=C1CO[C@H]2CN(Cc3ncc[nH]3)C[C@H]2N1Cc1ccncc1` [CBK289259]: 94.0505.
In the case of `O=C(O)c1cccc(-n2cc(-c3ccc(F)cc3F)nn2)c1` [CBK112998], the “% of control remaining” value came to 90.6143.
To `Cn1c(=O)c2c(ncn2CC(=O)Nc2ccc(OCc3ccccc3)cc2)n(C)c1=O` [CBK130478] belongs 97.6289; to `CC(C)(CNC(=O)Cn1cccc(C(=O)NC2CCCCC2)c1=O)c1cccc(F)c1` [CBK286069], 131.639.
Consider `CC(=O)N1CCc2c([nH]c3c(C)cccc23)C12CCCN(CCCC#N)C2` (stereo not shown) [CBK039705], for which the “% of control remaining” value stood at 84.5023.
For the molecule `Nc1ccc(Cl)cc1C(O)(CCCN1CCCCC1)c1ccccc1` (stereo not shown) [CBK023107], the “% of control remaining” value is on record as 7.874.
To `CCc1nn(CC(=O)N(C(C)C)C(C)C)c(=O)c2cc3occc3n12` [CBK283658] belongs 93.5416; to `Cc1nc(C2CCCN(C(=O)C3CCC3)C2)nc2c1CCCN2Cc1ccccc1` (stereo not shown) [CBK286257], 110.888; to `O=C(O)c1ccccc1-c1ccccc1C(=O)Nc1ccccc1-c1ccccc1` [CBK262843], 84.4455.
Regarding `CC(=O)CSc1nsc(SCC(C)=O)n1` [CBK006702], the “% of control remaining” value amounted to 75.8516.
To `CC(C)Nc1nccnc1OCCOc1cccc(O)c1` [CBK115878] belongs 93.0114.
`CN1C(=O)COc2ccccc2CCCC[C@@H]2[C@H]1CCCN2C(=O)CCn1ccnc1` [CBK292150]: the “% of control remaining” value is on record as 121.346.
To `O=C(NC1CCN(CCOc2ccccc2F)CC1)c1cccs1` [CBK305737] belongs 69.6672; to `CN1CCN(C(=O)c2ccc(-c3ccoc3)nc2)CC1` [CBK156280], 109.604.
With `COc1ccc(NC(=N)Nc2nc(=O)cc(CSc3nc4ccccc4s3)[nH]2)cc1` [CBK266256], the “% of control remaining” value is reported as 159.622.
As to `O=C(O)CCc1ccc(-c2ccc(F)cc2)n1-c1cc(Cl)ccc1O` [CBK131891], the “% of control remaining” value was found to be 84.7175.
Next, `COc1cc2c(cc1S(N)(=O)=O)C(=O)CCC2` [CBK010234]: 83.4546; `c1ccc(CN2CCC[C@H]2c2nc(-c3ccc(-c4cncnc4)nc3)no2)cc1` [CBK288891]: 120.598.
To `Cc1c(C)n(Cc2ccco2)c2ncnc(NCC(=O)O)c12` [CBK307563] belongs 95.2417; to `O=C(NCC(c1ccccc1)c1ccccc1)N1CCCCC1CO` (stereo not shown) [CBK156186], 82.6432.
`CC1CCc2noc(C3CCN(C(=O)c4ccnn4C)CC3)c2C1` (stereo not shown) [CBK285232]: the “% of control remaining” value came out at 63.5265.
To `CN(C)S(=O)(=O)N1CCN(Cc2ccccc2)CC1` [CBK263638] belongs 113.383; to `O=C(c1ccc2c(c1)OCCO2)N1CCC2(CCN(C(=O)c3cc(F)c(F)cc3F)C2)C1` (stereo not shown) [CBK131410], 93.4398; to `CN1CCCC(C(O)c2ccccc2)C1` (stereo not shown) [CBK012472], 88.3399.
To `COc1ccc([C@H]2CN(Cc3ccccc3)C[C@@H]2NC(=O)c2ccco2)cc1OC` [CBK286478] belongs 82.7096; to `Cc1ccc(-c2ncc(OCCN3CCCC3=O)nc2N)c(C)c1` [CBK145127], 108.244; to `O=C(c1[nH]c2ccccc2c1NS(=O)(=O)/C=C/c1ccccc1)N1CCOCC1` [CBK050068], 58.1527.
In the case of `Cn1cc(CCNC(=O)N2CCN(Cc3ccsc3)CC2)cn1` [CBK305692], the “% of control remaining” value is on record as 77.6711.
In the case of `O=c1cc(O)c2sc3nc(-c4ccco4)cc(C(F)(F)F)c3c2[nH]1` [CBK270223], the “% of control remaining” value is listed as 54.6599.
On to `Cc1cc(C)n2nc(SCc3nc4sc(C(=O)O)c(C)c4c(=O)[nH]3)nc2n1` [CBK297482], for which the “% of control remaining” value is on record as 83.4078.
Regarding `Cc1cc(C)n(C(=O)CCNS(=O)(=O)c2ccc(Cl)cc2)n1` [CBK269348], the “% of control remaining” value turned out to be 88.7586.
Next, `NC(=O)CCN1CCc2ccccc2C1` [CBK138325]: 94.1979.
Turning to `Cc1ccc(-n2ncc3c(=O)n(CC(=O)Nc4ccc(C)cc4C)cnc32)cc1` [CBK287535], the “% of control remaining” value worked out at 114.144.
In the case of `O=C(Cc1csc(-c2c(Cl)cccc2Cl)n1)NC[C@H]1CC[C@H](C(=O)O)CC1` [CBK299767], the “% of control remaining” value was found to be 109.083.
